Experimental data published in the supplement of paper PMC9174493.
The other results are listed elsewhere or left out. Single values of this set are uncertain. Values with irradiation are relative to irradiated vehicle.

Test system: A549-Dual
Assay: ISRE reporter (Lucia luciferase) activity, viability-corrected, relative to vehicle (fold change vs vehicle); higher = more activation of STING-IRF / NF-kB immune response reporter
Conditions: 10 µM; irradiation: none

SMILES | ISRE reporter
C[N+](C)(C)C[C@H](O)CC(=O)[O-] [L-carnitine] | 0.792
CCCCCCCC/C=C\CCCCCCCC(=O)OC [Methyl Oleate] | 0.366
CCOC(=O)C1=C(C)NC(C)=C(C(=O)OC)C1c1cccc([N+](=O)[O-])c1 (centres undefined) [Nitrendipine] | 0.787
O=C(O)CCCCC1SCC2NC(=O)NC21 (centres undefined) [Biotin (Vitamin B7)] | 1.18
COc1cc(NC(C)CCCN)c2ncccc2c1.O=P(O)(O)O.O=P(O)(O)O (centres undefined) [Primaquine Diphosphate] | 1.19
O=C(NC1CCN(CCCCC2(C(=O)NCC(F)(F)F)c3ccccc3-c3ccccc32)CC1)c1ccccc1-c1ccc(C(F)(F)F)cc1 [Lomitapide] | 1.77
CCN(CC)CCOCCOC(=O)C(CC)(CC)c1ccccc1.O=C(O)CC(O)(CC(=O)O)C(=O)O [Oxeladin Citrate] | 0.912
COC1OC(COS(=O)(=O)[O-])C(OC2OC(C(=O)[O-])C(OC3OC(COS(=O)(=O)[O-])C(OC4OC(C(=O)[O-])C(OC5OC(COS(=O)(=O)[O-])C(O)C(O)C5NS(=O)(=O)[O-])C(O)C4O)C(OS(=O)(=O)[O-])C3NS(=O)(=O)[O-])C(O)C2OS(=O)(=O)[O-])C(O)C1NS(=O)(=O)[O-].[Na+].[Na+].[Na+].[Na+].[Na+].[Na+].[Na+].[Na+].[Na+].[Na+] (centres undefined) [Fondaparinux Sodium] | 0.946
CNS(=O)(=O)Cc1ccc2[nH]cc(CCN(C)C)c2c1.O=C(O)CCC(=O)O [Sumatriptan Succinate] | 0.882
